The source gives no read counts; variants with many changes may rest on few reads.
B1: OR4K15 (parent)
chain: GUUAACGGUCAUAGGCCAUGGAAACUAGGAGCACCAUUUCGCUGCCAGUGAAGAAAUGAACAAAGAAAAUCUGGGCCAGGCAGGCAUCAAAAGAAAUAGUCUUGCGCUCAACCAGAAAGUCUGUAAUCAUUUUAAGGGUA

Variants of: B1
Test: self-cleavage, relative activity (ratio to wild type); higher = more cleavage; in vitro, sequencing; the parent is a self-cleaving ribozyme
Work on GUUAACGGUCAUAGGCCAUGGGAACUAGGAGCACCAUUUCGCUGCCAGUGAAGAAAUGGACAGAGAAAAUCUGGGCCAGGCAGGCAUCAAAAGAAAUAGUCUUGCGCUCAACCAGAGAGUCUGUAAUCAUUUUAAGGGUA yielded a self-cleavage of 1.81. For GUUAACGGUCAUAGGCCAUGGAAACUAGGAGCACCAUUUCGCUGCCAGUGAGGAGAUGAACAAAGAAAAUCUGGGCCGGGCAGGCAUCAAAAGAAAUAGUCUUGCGCUCAACCAGAAGGUCUGUAAUCAUUUUAAGGGUA, the self-cleavage was 0.15. With GUUAACGGUCAUAGGCCAUGGAAACUAGGAGCACCAUUUCGCUGCCAGUGAGGAAAUGAACAAAGAAAAUCUGGGCCAGGCAGGCUUCAAAAGAAAUAGUCUUGCGCUCAACCAGGAAGUCUGUAAUCACCUUAAGGGUA the self-cleavage was 0.37. Variant GUUAACGGUUAUAGGCCAUGGAAACUAGGAGCACCAUUUCGCUGCCAGUGAAGAAAUGAACAACGAAAAUCUGGGCCAGGCAGGCAUCAAAAGAAAUAGUCUUGCGCUCAACCAGAAAGUCUGUAAUUAUUUUAAGGGUA has a self-cleavage of 0.54. GUUAACGAUCAUAGGCUAUGGAAACUAGGAGCACCAUUUCGCUGCCAGUGAAGAAAUGAACAAAGAAGAUCUGGGCCAGGCAGGCAUCGAAAGAAAUAGUCUUGCGCUCGACCAGAAAGUCUGUAAUCAUUUUAAGGGUA gave a self-cleavage of 0.26. GUUAACGGUCAUAGGCCAUGGAAACUAGGAGCACCAUUUCGCUGCCAGUGAAGAAAUGGACAAAGAAAAUCUGGGCCAGGCAGGCUUCAGAAGAAAUAGUCUUGCGCUCAACCAGAAAGUCUGUAAUCAUUUUAAGGGUA gave a self-cleavage of 0.7. In the case of GUUAACGGUUAUAGGCCAUGGAAACUAGGAGCGCCAUUUCGCUGCCAGUGAAGAAAUGAACAAAGAAAAUCUUGGCCAGGCAGGCAUCAAAAGAAAUAGUCUUGCGCUCAACCAGAAAGUCUGUAAUCAUUUUAAGGGUA, the self-cleavage is reported as 0.2. Variant GUUAACAGUCAUAGGCCAUGGAAACUAGGAGCACCAUCUCGCUGCCAGUGAAGAAAUGAACAAAGAAAAUCUGGGCCAGGCAGGCAUCAAAAGAAGUAGUCUUGCGCUCAACCAGAAAGUCUGUAAUCAUUUUAAGGGUA has a self-cleavage of 1.72. Work on GUUAACGGUCAUAGGCCAUGGAAACUAGGAGCACCAUUUCGCUGCCAGUGAAGAAAUGAACAAAGAUAAUCUGGGCCAGGCAGGCAUCGAAAGAAAUAGUCAUGCGCUCAACCAGAAAGUCUGUAAUCAUUUUAAGGGUA yielded a self-cleavage of 0.88. With GUUAACGGUCAUAAGCCAUGGAAACUAGGAGCACCAUUUCGCUGCCAGUGAAGAAAUGAACAAAGAAAAUCUGGGCCAGGCAGGCAUCAGAAGAAAUAGUCUUGCGCUCAACCAGAAGGUCUGUAAUCAUUUUAAGGGUA the self-cleavage was 0.77. Work on GUUAACGGUCAUAGGCCAUGGAAACUAGGAGCACCAUUUCGCUGCCAGUGAAGAAAUGAACAAAGAAAAUCUGGGCCAGGCAGGCAUCAAAGGAAACAGUCUCGCGCUCAACCAGAAAGUCUGUAAUCAUUUUAAGGGUA yielded a self-cleavage of 0.68. In the case of GUUAACGGUCAUAGGCCAUGGAAACUAGGAGCACUAUUUCGCUGCCAGUGAAGAAAUGUACAAAGAAAAUCUGGGCCAGGCAGGCAUCAAAAGAAAUAGUCUUGCGCACAACCAGAAAGUCUGUAAUCAUUUUAAGGGUA, the self-cleavage is reported as 0.02. GUUAACGGUCAUAGGCCAUGGAAACUAGGAGCACCAUCUCGCUGCCAGUGAAGAAACGAUCAAAGAAGAUCUGGGCCAGGCAGGCAUCAGAAGAAAUAGUCUUGCGCUCAACCAGAAAGUCUGCAAUCAUUUUAAGGGUA gave a self-cleavage of 0.71. GUUAACGGUCAUAGGCCAUGGAAACUAGGAGCUCCAUUUCGCUGCCAGUGAAGAAAUGAACAAGGAAAAUCUGGACCAGGCAGGCAUCAAAAGAAAUAGUCUUGCGCUCAACCAGAAAGUCUGUAAUCAUUUUAAGGGUA showed a self-cleavage of 0.17. GUUAACGGUGAUAGGCCAUGGAAACUAGGAGCGCCAUUUCGCUGCCAGUGAAGACAUGAACAAAGAAAAUCUGGGCCAGGCAGGCAUCAAAAGAAAUAGUCUUGCGCUCAACCAGAAAGUCUGUAAUCAUUUUAAGGGUA gave a self-cleavage of 1.31. GCUAACGGUCAUAGGCCAUGGGAACUAGGAGCACCAUUUCGCUGCCAGUGAGGAAAUGAACAAAGAAAAUCUGGGCCAGGCAGGCAUCAAAAGAAAUAGUCUUGCGCUCAACCAGAAAGUCCGUAAUCAUUUUAAGGGUA gave a self-cleavage of 0.51. GUUAACGGUCAUAGGCCAUGGAAACUAGGAGCACCAUUUCGCUGCCGGUGAAGAAACGAACAAGGAAAAUCUGGGCCAGGCAGGCAUCAAAAGAAAUAAUCUUGCGCUCAACCAGAAAGUCUGUAAUCAUUUUAGGGGUA gave a self-cleavage of 0.07. Work on GUUAACGGUCAUAGGCCAUGGAAACUAGGAGCACCAUUUCGCUGCCAGAGAAGAAAUGAACAAAGAAAAUCAGGGCCAGGCAGGCAUCAAAAGAAAUAGCCUUGCGCUCAACCAGAAAGUCUGUAAUCAUUUUAAGGGUA yielded a self-cleavage of 0.32. GUUAACGGUCAGAGGCCAUGGAAACUAGGAGCACCAUUUCGCUGCCAGUGAAGAAAUGAACAGAGAAAAUCUGGGCCAGGCAGGCAUCAAAAGAAAUAGUCUUGCGCUCAACCAGAAAGUCUGUAACCAUUUUAAGGGUA gave a self-cleavage of 0.51. Work on GUUAACGGUCAUAGGCCAUGGAAGCUGGGAGCACCAUUCCGCUGCCAGUGAAGAAAUGAACAAAGAAAAUCUGGGCCAGGCAGGCAUCAAAAGAAAUAGUCUUGCGCUCAACCAGAAAGUCUGUAAUCAUCUUAAGGGUA yielded a self-cleavage of 0.76. With GUUAACGGUCAUAGGCCAUGGAAGCUAGGAGCACCAUUUCGCUGCCAGUGAGGAAAUGAGCAAAGAAAAUCUGGGCCAGGCAGGCAUCAAAAGAAAUAGUCUUGCGCUCAACCAGAAAGUCUGUAAUCAUUCUAAGGGUA the self-cleavage was 0.69. In the case of GUUAACGGUCAUAGGCCAUGGAAACUAGGAGCACCAUUUCGCAGCCAGUGAAGAAGGGAACAAAGAAAAUCUGGGCCAGGCGGGCAUCAAAAGAAAUAGUCUUGCGCUCAACCAGAAAGUCUGUAAUCAUUUUAAGGGUA, the self-cleavage is reported as 0.44. For GUUAACGGUCGUAGGCCAUGGAAACUAGGAGCACCACUCCGCUGCCAGUGAUGAAAUGAACAAAGAAAAUCUGGGCCAGGCAGGCAUCAAAAGAAAUAGUCUUGCGCCCAACCAGAAAGUCUGUAAUCAUUUUAAGGGCA, the self-cleavage was 0.03. Work on GUUAACGGCCAUAGGCCAUGGAAGCUAGGAGCACCAUCUCGCUGCCAGUGAGGAAAUGAACAAAGAAAAUCUGGGCCAGGCAGGCAUCAAAAGAAAUAGUCUUGCGCUCAACCAGAAAGUCUGUAAUCAUUUUAAGGGUA yielded a self-cleavage of 0.15. Variant GUUAACGGUCAUAGGCCAUGGAAACUAGGAGCACCAUUUCGCUGCCAGUGAAGAAAUGAACAAAGAAUAUCUGGGCCAGGCAGGCAUCAAAAGAAGUAGUCUUGCGCUCAACCAGAAGGUCGGUAAUCAUUUUAAGGGUA has a self-cleavage of 1.75. In the case of GUUAGCGGUCAUAGGCCAUGGAAACUAGGAGCACCAUUUCGCUGCCAGCGAAGGAAUGAACAAAGAAAAUCUGGGCCAGGCAGGCAUCAAAAGAAAUAGUCCUGCGCUCAACCAGAAAGUCUGUAAUCAUUUUAGGGGUA, the self-cleavage is reported as 1.4. Work on GUUAACGGUCUUAGACCAUGGAAACUAGGAGCACCAUUUCGCUGCCAGCGAAGAAGUGAACAAAGAAAAUCUGGGCCAGGCAGGCAUCAAAAGAAAUAGUCUUGCGCACAACCAUAAAGUCUGUAAUCAUUUUAAGGGUA yielded a self-cleavage of 0.02. For GUUAACGGUCAUAGGCCAUGGAAACUAGGAGCACCAUUUCCCUGCCAGUGAAGAAAUGAACAAAGAAAAUCUGGGCCAGGCAGGCAUCAAAAGAAAUAGUCUUGCGCUCAACCAGAAAGUCUGUAACCACUUUAAGGGUA, the self-cleavage was 0.17. For GUUAACGGUCAUAGGCCUUGGAAACUAGGAGCACCAUUUCGCUGCCAGUGAAGAAAUGAACAGAGAAAAUCUGGGCCAGGCAGGCAUCAAAAGAAAUAGUCUUGCGCUCAACCAGAAAGUCUGUAAUCAUUUUAAGGGUU, the self-cleavage was 0.82. In the case of GUUAACAGUCAUAGGCCAUGGAAACUAGGAGCACCAUUUCGCCGCCAGCGAAGAAAUGAACAAAGAAAAUCUGGGCCAGGCAGGCAUCAAAAGAGAUAGUCUUGCGCUCAACCAGUAAGUCUGUAAUCAUUUUAAGGGUA, the self-cleavage is reported as 0.65. GCUAACGGUCAUAGGCCAUGGAAACUAGGAGCACCAUUUCGCUGCCAGUGAAGAAAUGAACAAAGAAAAUCUGGGCCAGGCAGGCAUCCAGAGAAAUAGUCUUGCGCUCAACCAGAAAGUCUGUAAUCAUUUUAUGGGUA gave a self-cleavage of 0.52. With GUUAACGGUCAUAGGCCAUGGAGACUAGGAGCACCAUUUCGCUGCCAGUGAAGAUAUGAACAAAGAAAAUCUGGGCCAGGCAGGCAUCAAAAGAAAUAGUCUCGCGCUCAACCAGAAAGUCUGUAAUCAUUUUAAGGGUA the self-cleavage was 0.34. In the case of GUUAACGGUCAUAGGCCAUGGAAACUAGGGGCACCAUUUCGCUGCCAGUGAAGAAAUGAACAAAGGAAAUCUGGGCCAGGCAGGCAUCAAAAGAAAUAGUCUUGCGCUCAACCAGAAAGUCUGUAAUCAUUUUAAGGGCA, the self-cleavage is reported as 1.37. Work on GUUAACGGUCAUAGGCCAUGGAAACUAGGAGCACCAUUUCGCUGCCAGUGAAGAAAUGAACAGAGAAAAUCUGGGCCAGGCAGGCAUCAAAAGGAAUAGUCUUGCGCUCAACCAGAAAGUCUGGAAUCAUUUUAAGGGUA yielded a self-cleavage of 0.36. GUUAACGGUCAUAGGCCAUGGAAACUAGGGGCACCAUUUCGCUGCCAGUGAAGAAAUGAACAAAGAAAAUCUGGGCCAGGCAGGCAUCAAAAGAAAUAGUCUAGCGCUCAACCAGAAAGUCUGUAGUCAUUUUAAGGGCA gave a self-cleavage of 0.58. With GUUAACGGCCGUAGGCCAUGGAAACUAGGAGCACCAUUUCGCUGCCAGUGAAGAAAUGAACAAAGAAAAUCUGGGCCAGGCAGGCAUCAAAAGAAAUAGUCUUGCGCUCAUCCAGAAAGUCUGUAAUCAUUUUAAGGGUA the self-cleavage was 0.04. With GUUAACGGUCAUAGGCCAUGGAAACUAGGAGCACCAUUACGCUGCCAGUGAAGAAAUGAACAAAGAAUAUCUGGGCCAGGCAGGCAUCAAAAGAAAUAGUCUUGCGCUCAACCAGAAAGUCUGUAAUCAUUUUAAGGGUG the self-cleavage was 1.94. With GUUAACGGUCAUAGGCCAUGGAAACUAGGAGCACCAAUUCGCUGCCAGUGAAGAAAUGAACAAAGAAAAUCUGGGCCAGGCAGGCAUCAAAAGAAAUAGUCUUGCGCUCAACCAGAGAGUCAGUAAUCAUUUUAAGGGUA the self-cleavage was 2.2. With GUUAACGGUCAUAGGCCAUGGAAACUAGGAGCACCGUUUCGCUGCCAGUGAAGAAAUGGACAAAGAAAAUCUGGGCCAGGCAGGCGUCAAAAGAAAUAGUCUUGCGCUCAACCAGAAAGUCUGCAAUCAUUUUAAGGGUA the self-cleavage was 0.42. GUAAACGGUCAUUGGCCAUGGAACCUAGGAGCACCAUUUCGCUGCCAGUGAAGAAAUGAACAAAGAAAAUCUGGGCCAGGCAGGCAUCAAAAGAAAUAGUCUUGCGCUCAUCCAGAAAGUCUGUAACCAUUUUAAGGGUA showed a self-cleavage of 0.08. For GUUAACGGUCAUAGGCCGUGGAAACUAGGAGCACCAUUUCGCUGCCAGUGAAGAAAUGAACAAAGAGAAUCUGGGCCAGGCAGGCAUCAAAAGAAAUAGUCUUGCGCUCAACCAGAAAGUCUGUAGUCACUUUAAGGGUA, the self-cleavage was 0.53.

Source: the RNAGym collection of RNA variant scans (doi:10.7554/elife.90254)
